Data reported in the supplement of paper PMC10369915.
The list shows a part of the results. No stated cut-off is given here; in the data, active = 3.2 or more and inactive = the rest. Most of these values are background signal.

Molecular target: SHP2 C-SH2 domain E139D
Test: enrichment score (SH2-bound / input frequency) (ratio); bacterial display of known human phosphotyrosine sites (pTyr-Var adds point mutants) read by sequencing; higher = stronger binding; tyrosines were phosphorylated by kinases first
Conditions: peptide library: pTyr-Var
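Further: displayed peptides selected on beads carrying the immobilized SH2 domain, with library peptides lacking any tyrosine serving as negative controls.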

Enrichment score, inactive:
HNVPIYEGFAL [ACTA1_Y168_YF] 0.998
PIYEGYALPHA [ACTA1_Y171] 0.677
PIFEGYGLPHA [ACTA1_Y171_A172G_YF] 0.659
RDLTDYLMKIL [ACTA1_Y190] 2.2
DDLTDYLMKIL [ACTA1_Y190_R185D] 1.11
LTERGYSFVTT [ACTA1_Y200] 0.946
LTERSYSFVTT [ACTA1_Y200_G199S] 0.775
LTELGYSFVTT [ACTA1_Y200_R198L] 0.52
KEKLCYVALDF [ACTA1_Y220] 1.16
SLEKSYELPDG [ACTA1_Y242] 0.586
SLEKSYKLPDG [ACTA1_Y242_E243K] 0.697
IHETTYNSIMK [ACTA1_Y281] 0.828
IHETTYKSIMK [ACTA1_Y281_N282K] 1.11
IHETTHNSIMK [ACTA1_Y281_Y281H] 0.888
IRKVLYANNVM [ACTA1_Y296_D294V] 0.719
LTKQEYDEAGP [ACTA1_Y364_I359L] 0.511
ILTLKYPIELG [ACTA1_Y71_H75L] 1.57
ILTLKYPIERG [ACTA1_Y71_H75R] 1.53

Molecular target: SHP2 C-SH2 domain wild-type
Test: as above
Conditions: peptide library: pTyr-Var

Enrichment score, inactive:
HNVPIYEGFAL [ACTA1_Y168_YF] 0.876
PIYEGYALPHA [ACTA1_Y171] 0.711
PIFEGYGLPHA [ACTA1_Y171_A172G_YF] 0.689
RDLTDYLMKIL [ACTA1_Y190] 2.23
DDLTDYLMKIL [ACTA1_Y190_R185D] 1.11
LTERGYSFVTT [ACTA1_Y200] 2.07
LTERSYSFVTT [ACTA1_Y200_G199S] 2.01
LTELGYSFVTT [ACTA1_Y200_R198L] 2.34
KEKLCYVALDF [ACTA1_Y220] 1.42
SLEKSYELPDG [ACTA1_Y242] 0.606
SLEKSYKLPDG [ACTA1_Y242_E243K] 0.64
IHETTYNSIMK [ACTA1_Y281] 1.59
IHETTYKSIMK [ACTA1_Y281_N282K] 2.19
IHETTHNSIMK [ACTA1_Y281_Y281H] 0.693
IRKVLYANNVM [ACTA1_Y296_D294V] 0.857
LTKQEYDEAGP [ACTA1_Y364_I359L] 0.587
ILTLKYPIELG [ACTA1_Y71_H75L] 1.51
ILTLKYPIERG [ACTA1_Y71_H75R] 1.13

Molecular target: SHP2 N-SH2 domain L43F
Test: as above
Conditions: peptide library: pTyr-Var

Enrichment score, active:
KEKLCYVALDF [ACTA1_Y220] 8.88

Enrichment score, inactive:
HNVPIYEGFAL [ACTA1_Y168_YF] 1.11
PIYEGYALPHA [ACTA1_Y171] 0.711
PIFEGYGLPHA [ACTA1_Y171_A172G_YF] 0.748
RDLTDYLMKIL [ACTA1_Y190] 2.22
DDLTDYLMKIL [ACTA1_Y190_R185D] 1.18
LTERGYSFVTT [ACTA1_Y200] 0.772
LTERSYSFVTT [ACTA1_Y200_G199S] 1.34
LTELGYSFVTT [ACTA1_Y200_R198L] 1.75
SLEKSYELPDG [ACTA1_Y242] 0.611
SLEKSYKLPDG [ACTA1_Y242_E243K] 0.662
IHETTYNSIMK [ACTA1_Y281] 0.812
IHETTYKSIMK [ACTA1_Y281_N282K] 1.13
IHETTHNSIMK [ACTA1_Y281_Y281H] 0.845
IRKVLYANNVM [ACTA1_Y296_D294V] 0.818
LTKQEYDEAGP [ACTA1_Y364_I359L] 0.48
ILTLKYPIELG [ACTA1_Y71_H75L] 1.51
ILTLKYPIERG [ACTA1_Y71_H75R] 1.65

Molecular target: SHP2 N-SH2 domain T42A
Test: as above
Conditions: peptide library: pTyr-Var

Enrichment score, inactive:
HNVPIYEGFAL [ACTA1_Y168_YF] 0.842
PIYEGYALPHA [ACTA1_Y171] 0.638
PIFEGYGLPHA [ACTA1_Y171_A172G_YF] 0.644
RDLTDYLMKIL [ACTA1_Y190] 2.36
DDLTDYLMKIL [ACTA1_Y190_R185D] 0.882
LTERGYSFVTT [ACTA1_Y200] 1.48
LTERSYSFVTT [ACTA1_Y200_G199S] 1.74
LTELGYSFVTT [ACTA1_Y200_R198L] 2.71
SLEKSYELPDG [ACTA1_Y242] 0.594
SLEKSYKLPDG [ACTA1_Y242_E243K] 0.649
IHETTYNSIMK [ACTA1_Y281] 0.837
IHETTYKSIMK [ACTA1_Y281_N282K] 0.921
IHETTHNSIMK [ACTA1_Y281_Y281H] 0.717
IRKVLYANNVM [ACTA1_Y296_D294V] 1.54
LTKQEYDEAGP [ACTA1_Y364_I359L] 0.407
ILTLKYPIELG [ACTA1_Y71_H75L] 1.51
ILTLKYPIERG [ACTA1_Y71_H75R] 1.34

Enrichment score, active:
KEKLCYVALDF [ACTA1_Y220] 10.2

Molecular target: SHP2 N-SH2 domain T52S
Test: as above
Conditions: peptide library: pTyr-Var

Enrichment score, active:
KEKLCYVALDF [ACTA1_Y220] 7.81

Enrichment score, inactive:
HNVPIYEGFAL [ACTA1_Y168_YF] 1.05
PIYEGYALPHA [ACTA1_Y171] 0.771
PIFEGYGLPHA [ACTA1_Y171_A172G_YF] 0.544
RDLTDYLMKIL [ACTA1_Y190] 2.28
DDLTDYLMKIL [ACTA1_Y190_R185D] 1.15
LTERGYSFVTT [ACTA1_Y200] 0.713
LTERSYSFVTT [ACTA1_Y200_G199S] 0.953
LTELGYSFVTT [ACTA1_Y200_R198L] 0.952
SLEKSYELPDG [ACTA1_Y242] 0.587
SLEKSYKLPDG [ACTA1_Y242_E243K] 0.725
IHETTYNSIMK [ACTA1_Y281] 0.711
IHETTYKSIMK [ACTA1_Y281_N282K] 1.05
IHETTHNSIMK [ACTA1_Y281_Y281H] 0.75
IRKVLYANNVM [ACTA1_Y296_D294V] 0.815
LTKQEYDEAGP [ACTA1_Y364_I359L] 0.423
ILTLKYPIELG [ACTA1_Y71_H75L] 1.71
ILTLKYPIERG [ACTA1_Y71_H75R] 1.35

Molecular target: SHP2 N-SH2 domain wild-type
Test: as above
Conditions: peptide library: pTyr-Var

Enrichment score, inactive:
HNVPIYEGFAL [ACTA1_Y168_YF] 1.06
PIYEGYALPHA [ACTA1_Y171] 0.788
PIFEGYGLPHA [ACTA1_Y171_A172G_YF] 0.693
RDLTDYLMKIL [ACTA1_Y190] 2.21
DDLTDYLMKIL [ACTA1_Y190_R185D] 0.94
LTERGYSFVTT [ACTA1_Y200] 0.784
LTERSYSFVTT [ACTA1_Y200_G199S] 1.21
LTELGYSFVTT [ACTA1_Y200_R198L] 0.89
SLEKSYELPDG [ACTA1_Y242] 0.651
SLEKSYKLPDG [ACTA1_Y242_E243K] 0.639
IHETTYNSIMK [ACTA1_Y281] 1.03
IHETTYKSIMK [ACTA1_Y281_N282K] 0.989
IHETTHNSIMK [ACTA1_Y281_Y281H] 0.961
IRKVLYANNVM [ACTA1_Y296_D294V] 0.94
LTKQEYDEAGP [ACTA1_Y364_I359L] 0.504
ILTLKYPIELG [ACTA1_Y71_H75L] 1.28
ILTLKYPIERG [ACTA1_Y71_H75R] 2.45

Enrichment score, active:
KEKLCYVALDF [ACTA1_Y220] 5.39
